Out of some 310,000 compounds screened, about 2,200 (0.71%) showed an effect of 50% or more. The effect is printed as a negative number. The list shows a part of the results.

In this experiment the target is human ether-à-go-go-related gene (hERG) potassium channel (human, UniProt Q12809). Briefly: primary screen, population patch clamp on CHO cells stably expressing hERG.
human ether-à-go-go-related gene (hERG) potassium channel, sequence (Q12809 whole entry, looked up): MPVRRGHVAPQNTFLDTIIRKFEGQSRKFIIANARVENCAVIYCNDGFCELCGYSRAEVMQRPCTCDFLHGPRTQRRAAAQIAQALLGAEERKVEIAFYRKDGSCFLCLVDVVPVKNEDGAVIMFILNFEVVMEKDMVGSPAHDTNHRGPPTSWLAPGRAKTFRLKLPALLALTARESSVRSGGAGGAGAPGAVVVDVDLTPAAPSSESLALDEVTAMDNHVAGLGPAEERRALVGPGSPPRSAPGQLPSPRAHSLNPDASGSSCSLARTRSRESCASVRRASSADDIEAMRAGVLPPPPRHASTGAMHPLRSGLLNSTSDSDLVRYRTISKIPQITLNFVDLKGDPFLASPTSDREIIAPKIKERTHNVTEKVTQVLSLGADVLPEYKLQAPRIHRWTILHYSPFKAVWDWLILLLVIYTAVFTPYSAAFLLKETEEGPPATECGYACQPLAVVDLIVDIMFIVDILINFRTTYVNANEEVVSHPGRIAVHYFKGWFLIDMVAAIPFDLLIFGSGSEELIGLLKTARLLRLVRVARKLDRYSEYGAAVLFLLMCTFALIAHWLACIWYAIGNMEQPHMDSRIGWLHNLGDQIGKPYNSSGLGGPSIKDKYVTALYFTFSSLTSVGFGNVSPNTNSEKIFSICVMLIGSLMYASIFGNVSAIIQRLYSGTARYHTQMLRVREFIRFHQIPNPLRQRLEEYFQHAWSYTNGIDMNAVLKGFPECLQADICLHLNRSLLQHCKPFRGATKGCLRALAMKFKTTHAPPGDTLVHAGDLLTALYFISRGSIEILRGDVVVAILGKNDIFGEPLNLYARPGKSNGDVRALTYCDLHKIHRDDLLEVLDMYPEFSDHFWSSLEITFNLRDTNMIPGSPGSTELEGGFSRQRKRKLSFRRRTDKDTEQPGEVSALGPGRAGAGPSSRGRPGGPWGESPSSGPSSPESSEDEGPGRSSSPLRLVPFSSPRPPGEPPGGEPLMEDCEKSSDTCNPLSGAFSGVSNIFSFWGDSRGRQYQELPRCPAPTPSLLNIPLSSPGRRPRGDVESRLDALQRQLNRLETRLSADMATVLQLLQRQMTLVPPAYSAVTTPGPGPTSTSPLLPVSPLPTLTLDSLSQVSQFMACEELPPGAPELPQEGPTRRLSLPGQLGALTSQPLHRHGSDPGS
For `CCn1c(-c2ccccc2)c[nH]c1=S`, the “hERG current change (%, negative = inhibition) at 1uM” value was 11.2%. For `Cc1ccc(C(=O)NNC(=O)CCCN2C(=O)/C(=C/c3ccccc3Cl)SC2=S)cc1`, the “hERG current change (%, negative = inhibition) at 1uM” value was determined as 10.4%. For `On1c(-c2ccco2)nc2c1CCc1nonc1-2`, the “hERG current change (%, negative = inhibition) at 1uM” value is 10.5%. For `CCOC(=O)C1CCC2(CC1)C(C#N)=C(N)Oc1n[nH]c(C)c12` (stereo not shown) the value was 9.18%; for `O=C(CSc1nc2ccccc2c(=O)[nH]1)Nc1ccc(C(=O)O)cc1`, 6.74%; for `COc1ccccc1NC(=O)COC(=O)c1cc2ccccc2cc1O`, -1.33%.

Regarding `CCC(=O)Nc1nnc(SCC(=O)NCc2ccc3c(c2)OCO3)s1`, the “hERG current change (%, negative = inhibition) at 1uM” value is -3.86%. `CC(C)NC(=O)c1ccccc1NC(=O)/C=C/c1cccc([N+](=O)[O-])c1`: the “hERG current change (%, negative = inhibition) at 1uM” value turned out to be 13.3%. Regarding `COc1ccc(C(CC(=O)NCc2ccccc2)Sc2n[nH]c(-c3ccc(Cl)cc3)n2)cc1` (stereo not shown), the “hERG current change (%, negative = inhibition) at 1uM” value was 7.3%.

Take `CCOC(=O)c1c(C)nc2ncccn12`: the “hERG current change (%, negative = inhibition) at 1uM” value came out at 2.38%. On to `CCNC(=S)Nc1cccc([N+](=O)[O-])c1`, for which the “hERG current change (%, negative = inhibition) at 1uM” value is -5.89%. Consider `CCOc1cc(S(=O)(=O)NCc2ccccc2)ccc1F`, for which the “hERG current change (%, negative = inhibition) at 1uM” value is on record as 7.08%. Under `O=c1c2ccccc2[nH]c(=S)n1CCCN1CCN(c2ccccc2)CC1` stands 14%; under `CC(C)CC(=O)NC(=S)Nc1ccccc1F`, 4.66%; under `Cc1cc(Cl)ccc1OCCCC(=O)OCC(=O)Nc1cccc(S(N)(=O)=O)c1`, -1.55%. In the case of `Cc1ccc(NC(=O)CCc2c[nH]c3ccccc23)nc1`, the “hERG current change (%, negative = inhibition) at 1uM” value is given as 6.01%. Consider `O=C(Nc1ccccc1N1CCN(C(=O)c2ccccc2)CC1)c1ccc(Br)o1`, for which the “hERG current change (%, negative = inhibition) at 1uM” value is listed as -26%. Take `CCOCCCNC(=O)c1ccc(OC(C)=O)cc1`: the “hERG current change (%, negative = inhibition) at 1uM” value is on record as 2.78%. For `O=c1[nH]nnc2sc3c(c12)CCCC3` the value was 1.46%. As for `CN1C(=O)CSc2ccc(NC(=O)N3CCOCC3)cc21`, the “hERG current change (%, negative = inhibition) at 1uM” value is listed as -1.98%.

Take `Cc1ccc(NC(=O)CSc2ccc(S(=O)(=O)N3CCCC3)cn2)cc1F`: the “hERG current change (%, negative = inhibition) at 1uM” value stood at 14.5%.

Turning to `CCCCCCn1c(=O)c(F)cn(Cc2ccc(OC)c([N+](=O)[O-])c2)c1=O`, the “hERG current change (%, negative = inhibition) at 1uM” value was -9.85%.

Turning to `COc1ccc(N2CCN(C(=O)Cn3ncc4c([nH]c5ccccc54)c3=O)CC2)cc1`, the “hERG current change (%, negative = inhibition) at 1uM” value worked out at 11.7%. For the compound `CCOc1ccc(NC(=O)c2sccc2-n2cccc2)cc1`, the “hERG current change (%, negative = inhibition) at 1uM” value is given as 15.8%. Turning to `CCN(CC)C(=O)CSc1nc(-c2ccco2)cc(C(F)(F)F)c1C#N`, the “hERG current change (%, negative = inhibition) at 1uM” value was 11.8%. For `Cc1cc(C)c(NC(=O)CSc2nc(COc3ccccc3)nc3ccccc23)c(C)c1` the value was 16.6%; for `C[C@H](O)[C@@]1(O)CC[C@H]2[C@@H]3CC[C@@H]4C[C@H](O)CC[C@]4(C)[C@H]3CC[C@@]21C`, 0.717%; for `C[C@H](NC(=O)[C@H]1N2C(=O)c3ccccc3C2SC1(C)C)C(=O)N1CCCCC1` (stereo partly shown), 27.9%. Regarding `CN(C)S(=O)(=O)c1cccc(C(=O)OCC(=O)NC2CCCc3ccccc32)c1` (stereo not shown), the “hERG current change (%, negative = inhibition) at 1uM” value is 2.42%. Regarding `O=C(c1ccccn1)c1cc2ccccc2n1S(=O)(=O)c1ccccc1`, the “hERG current change (%, negative = inhibition) at 1uM” value came to 15.9%. On to `COc1ccc(C2=CC(=O)C[C@H](c3ccc(F)cc3)C2)c(F)c1F`, for which the “hERG current change (%, negative = inhibition) at 1uM” value is 8.81%.

On to `CSC1=NCCN1C(=O)c1cccs1`, for which the “hERG current change (%, negative = inhibition) at 1uM” value is 12.1%. For `Cc1cc(NC(=O)COC(=O)CNS(=O)(=O)c2ccc(C)c(C)c2)no1`, the “hERG current change (%, negative = inhibition) at 1uM” value was 10.4%.

For the compound `COc1ccc(-c2nnn(Cc3ccccc3F)n2)cc1`, the “hERG current change (%, negative = inhibition) at 1uM” value turned out to be 20%. Take `CCn1nc(NS(=O)(=O)c2ccccc2[N+](=O)[O-])c2cc3ccc(C)cc3nc21`: the “hERG current change (%, negative = inhibition) at 1uM” value is recorded as 12.2%.

With `O=C(NCCc1cccs1)C1CC(c2cccc(F)c2)=NO1` (stereo not shown), the “hERG current change (%, negative = inhibition) at 1uM” value is given as 9.94%.

For the compound `CN1C(=O)C(C2c3ccccc3C(=O)N2Cc2ccc([N+](=O)[O-])cc2)C(=O)N(C)C1=O` (stereo not shown), the “hERG current change (%, negative = inhibition) at 1uM” value is on record as -3.66%.

In the case of `COc1ccc(NC(=O)C2CC(c3ccccc3Cl)=NO2)cc1` (stereo not shown), the “hERG current change (%, negative = inhibition) at 1uM” value was determined as 16.6%. Take `Oc1ccccc1/C=N/c1c(-c2ccco2)nc2ccccn12`: the “hERG current change (%, negative = inhibition) at 1uM” value was 6.02%. On to `Cc1ccc(NC(=S)N2CCCC2)cc1Cl`, for which the “hERG current change (%, negative = inhibition) at 1uM” value is recorded as 10.9%.

As for `CCC(=O)N=c1sc2cc(F)cc(F)c2n1C`, the “hERG current change (%, negative = inhibition) at 1uM” value is recorded as 9.86%. Consider `CCCCn1c(=O)c(C(=O)Nc2ccc(C)cn2)c(O)c2ccccc21`, for which the “hERG current change (%, negative = inhibition) at 1uM” value is listed as 15.1%. `C=CCn1c(SCC(=O)NC2CCS(=O)(=O)C2)nc2sc(CC)cc2c1=O` (stereo not shown): the “hERG current change (%, negative = inhibition) at 1uM” value is recorded as -15.6%. Take `Cn1cc([N+](=O)[O-])c(C(=O)NNC(=O)c2ccc([N+](=O)[O-])cc2Cl)n1`: the “hERG current change (%, negative = inhibition) at 1uM” value is 11.1%. For the compound `O=C(Nc1ccncc1)c1cccn(Cc2ccccc2)c1=O`, the “hERG current change (%, negative = inhibition) at 1uM” value was -16.2%. For the compound `Cc1nc2c3ccccc3n(CC(=O)c3ccc(F)cc3)c(=O)n2n1`, the “hERG current change (%, negative = inhibition) at 1uM” value is 5.17%. Consider `COc1ccc([N+](=O)[O-])cc1NC(=S)NC(C)=O`, for which the “hERG current change (%, negative = inhibition) at 1uM” value is given as 5.45%. On to `CCc1ccc(NC(=O)c2cnc3scc(C)n3c2=O)cc1`, for which the “hERG current change (%, negative = inhibition) at 1uM” value is reported as 4.58%. As for `CCCCCCC1NC(C(=O)O)CS1` (stereo not shown), the “hERG current change (%, negative = inhibition) at 1uM” value is -9.13%. Take `O=C(Nc1nc2ccccc2n1CCOc1ccc(Cl)cc1)c1ccco1`: the “hERG current change (%, negative = inhibition) at 1uM” value is on record as 1.49%. On to `CCn1c(CN2C(=O)CSc3ccccc32)n[nH]c1=S`, for which the “hERG current change (%, negative = inhibition) at 1uM” value is given as 10.7%. Consider `CC(NC(=O)NNC(N)=S)(C(F)(F)F)C(F)(F)F`, for which the “hERG current change (%, negative = inhibition) at 1uM” value was 5.83%. On to `Cl.OC(c1ccccc1)(C1CCCCC1)C(CN1CCOCC1)c1ccccc1` (stereo not shown), for which the “hERG current change (%, negative = inhibition) at 1uM” value is 6.38%. For `C1CCC2S[C@H]3CCCCC3NC2C1` (stereo partly shown), the “hERG current change (%, negative = inhibition) at 1uM” value is 8.84%.

`Fc1ccc(C2=Nn3c(nnc3-c3n[nH]c4c3CCC4)SC2)cc1`: the “hERG current change (%, negative = inhibition) at 1uM” value was 6.32%. With `O=C(COc1ccc([N+](=O)[O-])cc1)NCc1cccnc1`, the “hERG current change (%, negative = inhibition) at 1uM” value is listed as 2.13%. On to `CCOCCn1c(=NC(=O)/C=C/c2ccccc2Cl)sc2cc(NC(C)=O)ccc21`, for which the “hERG current change (%, negative = inhibition) at 1uM” value was 4.91%. For the compound `O=C(NCc1ccco1)c1ccc2c(=O)n(-c3ccccc3)c(=O)n(Cc3cccc(F)c3)c2c1`, the “hERG current change (%, negative = inhibition) at 1uM” value is on record as 3.64%.

Values taken from article PMC4336329 (PLoS ONE, 2015).
